Our source for the viscosity values is the CheMixHub viscosity set.

± gives the uncertainty stated by the source. For part of its entries the source gives two or more results. The other results are left out here. An entry can have further records. The values listed for one entry are repeated measurements in other runs, samples, wells, individuals or studies. Marks in square brackets tell the records apart. The letters are not those of the source and start again with each entry.

Consider `CCC(=O)O`, for which the viscosity reads like this: (303.15 K, 100 kPa) 0.962 mPa·s [study A] and 0.959 ± 0.039 mPa·s [study B] and 0.96 ± 0.03 mPa·s [study C]; (303.15 K, 101 kPa) 0.868 ± 0.044 mPa·s [study A] and 0.9294 ± 0.02 mPa·s [study B] and 0.9663 ± 0.011 mPa·s [study C] and 0.96 ± 0.01 mPa·s [study D] and 0.958 ± 0.025 mPa·s [study E]; (308.15 K, 100 kPa) 0.896 mPa·s [study A] and 0.887 ± 0.036 mPa·s [study B] and 0.89 ± 0.03 mPa·s [study C]; (308.15 K, 101.33 kPa) 0.894 ± 0.024 mPa·s [study A] and 0.8894 ± 0.051 mPa·s [study B] and 0.8894 ± 0.0088 mPa·s [study C] and 0.89 ± 0.05 mPa·s [study D]; (313.15 K, 100 kPa) 0.843 mPa·s [study A] and 0.814 ± 0.033 mPa·s [study B] and 0.81 ± 0.03 mPa·s [study C]; (313.15 K, 101 kPa) 0.8166 ± 0.018 mPa·s [study A] and 0.843 ± 0.011 mPa·s [study B] and 0.84 ± 0.01 mPa·s [study C] and 0.8451 ± 0.022 mPa·s [study D]. The viscosity (318.15 K, 100 kPa) is 0.798 mPa·s [study A] and 0.742 ± 0.03 mPa·s [study B] and 0.74 ± 0.02 mPa·s [study C].

`C1C[C@@H]2[C@H]3CC[C@H](C3)[C@@H]2C1`: the viscosity by setting is: (313.15 K, 100 kPa) 2.059 ± 0.045 mPa·s [study A] and 2.082 ± 0.21 mPa·s [study B] and 2.083 ± 0.048 mPa·s [study C] and 2.125 ± 0.02 mPa·s [study D]; (323.15 K, 100 kPa) 1.764 ± 0.04 mPa·s [study A] and 1.763 ± 0.04 mPa·s [study B] and 1.773 ± 0.041 mPa·s [study C] and 1.762 ± 0.018 mPa·s [study D].

As for `CCCCCCCCCCCCC`, the viscosity (303.15 K, 100 kPa) is 1.53 ± 0.07 mPa·s [study A] and 1.54 ± 0.15 mPa·s [study B] and 1.56 ± 0.034 mPa·s [study C] and 1.527 mPa·s [study D]; the viscosity (313.15 K, 100 kPa) is 1.29 ± 0.06 mPa·s [study A] and 1.178 ± 0.12 mPa·s [study B] and 1.315 ± 0.029 mPa·s [study C] and 1.291 mPa·s [study D].

As usually defined, the viscosity is the resistance of a fluid to flow. Read a low viscosity as easy flow.
